The IC50 comes from the fitted curve, where viability falls to half of the control; fits outside the tested doses are given as limits. AUC, from the same fit, is the share of area under the viability curve across the 256-fold dose range; the more sensitive the line, the further below 1. For some of these results: Any top dose called inferred is not printed in the source and was worked back from the curve model.
Key:
Test in all cases: Viability of human cancer cell lines after 72 h of drug (GDSC screen)
AV-951 = compound: COc1cc2nccc(Oc3ccc(NC(=O)Nc4cc(C)on4)c(Cl)c3)c2cc1OC [AV-951]; details: top dose 0.128 µM; top dose inferred
Description: (§1)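 Human cancer cell lines in 384-well plates, medium with 10% serum, drug for 72 h over a 256-fold dose range (nine 2-fold or five 4-fold steps up to the top dose). Adherent lines were fixed and stained with the nucleic acid dye Syto60, suspension lines read with resazurin; signal relative to control wells, capped at 0 and 100%. One two-parameter sigmoid per drug and line, fitted in a mixed model over all curves with the slope shared within a line.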

Trametinib = compound: CC(=O)Nc1cccc(-n2c(=O)n(C3CC3)c(=O)c3c(Nc4ccc(I)cc4F)n(C)c(=O)c(C)c32)c1 [Trametinib]; details: top dose 1 µM
Description: as §1

PF-4708671 = compound: CCc1cncnc1N1CCN(Cc2nc3ccc(C(F)(F)F)cc3[nH]2)CC1 [PF-4708671]; details: top dose 10 µM; top dose inferred
Description: as §1

HG-6-64-1 = compound: CCN1CCN(Cc2ccc(NC(=O)c3ccc(C)c(/C=C/c4cnc5[nH]ccc5c4OC)c3)cc2C(F)(F)F)CC1 [HG-6-64-1]; details: top dose 5.12 µM; top dose inferred
Description: as §1

I-BET-762 = compound: CCNC(=O)C[C@@H]1N=C(c2ccc(Cl)cc2)c2cc(OC)ccc2-n2c(C)nnc21 [I-BET-762]; details: top dose 20 µM; top dose inferred
Description: as §1

KIN001-244 = compound: O=C(NC(COc1ccc2[nH]c(=O)[nH]c2c1)c1ccccc1)c1cccn(Cc2ccc(F)c(F)c2)c1=O [KIN001-244]; details: top dose 20 µM; top dose inferred
Description: as §1

MS-275 = compound: Nc1ccccc1NC(=O)c1ccc(CNC(=O)OCc2cccnc2)cc1 [MS-275]; details: top dose 5 µM; top dose inferred
Description: as §1

Cell Line | AUC (AV-951) | IC50 (AV-951) [nM] | AUC (Trametinib) | IC50 (Trametinib) [nM] | AUC (PF-4708671) | IC50 (PF-4708671) [µM] | AUC (HG-6-64-1) | IC50 (HG-6-64-1) [nM] | AUC (I-BET-762) | IC50 (I-BET-762) [µM] | AUC (KIN001-244) | IC50 (KIN001-244) [µM] | AUC (MS-275) | IC50 (MS-275) [nM]
D-263MG (glioma, adherent) | 0.983 | > 128 | 0.331 | 19 | 0.958 | > 10 | 0.761 | 2180 | 0.974 | > 20 | 0.955 | > 20 | 0.844 | 4730
D-283MED (medulloblastoma, adherent) | 0.991 | > 128 | 0.99 | > 1000 | 0.976 | > 10 | 0.841 | 3100 | 0.991 | > 20 | 0.944 | > 20 | 0.825 | 2650
D-336MG (glioma, adherent) | 0.973 | > 128 | 0.799 | 646 | 0.947 | > 10 | 0.568 | 516 | 0.968 | > 20 | 0.86 | > 20 | 0.956 | > 5000
D-392MG (glioma, adherent) | 0.948 | > 128 | 0.608 | 138 | 0.901 | > 10 | 0.673 | 1170 | 0.913 | > 20 | 0.913 | > 20 | 0.919 | > 5000
D-502MG (glioma, adherent) | 0.968 | > 128 | 0.531 | 79.2 | 0.96 | > 10 | 0.898 | > 5120 | 0.945 | > 20 | 0.935 | > 20 | 0.811 | 4790
D-542MG (glioma, adherent) | 0.982 | > 128 | 0.901 | > 1000 | 0.974 | > 10 | 0.8 | 3130 | 0.778 | 10 | 0.842 | 18.8 | 0.76 | 2120
DEL (lymphoid neoplasm, suspension) | 0.989 | > 128 | 0.969 | > 1000 | 0.99 | > 10 | 0.823 | 2220 | 0.904 | 16.6 | 0.891 | 14.7 | 0.519 | 349
DG-75 (Burkitt lymphoma, suspension) | 0.987 | > 128 | 0.953 | > 1000 | 0.897 | > 10 | 0.896 | > 5120 | 0.832 | 13 | 0.917 | > 20 | 0.782 | 2120
DJM-1 (skin, adherent) | 0.987 | > 128 | 0.743 | 307 | 0.961 | > 10 | 0.958 | > 5120 | 0.986 | > 20 | 0.864 | 17.2 | 0.826 | 2990
DMS-79 (small cell lung carcinoma, suspension) | 0.982 | > 128 | 0.981 | > 1000 | 0.943 | > 10 | 0.98 | > 5120 | 0.926 | > 20 | 0.915 | > 20 | 0.774 | 2300
DMS-114 (small cell lung carcinoma, adherent) | 0.979 | > 128 | 0.79 | 521 | 0.945 | > 10 | 0.934 | > 5120 | 0.797 | 11 | 0.923 | > 20 | 0.974 | > 5000
DND-41 (T-cell leukaemia, suspension) | 0.976 | > 128 | 0.542 | 80 | 0.99 | > 10 | 0.82 | 2500 | 0.464 | 1.01 | 0.842 | 11.7 | 0.617 | 627
DSH1 (bladder, adherent) | 0.989 | > 128 | 0.859 | 774 | 0.851 | 7.14 | 0.887 | > 5120 | 0.871 | 17.4 | 0.937 | > 20 | 0.537 | 391
DU-4475 (breast, suspension) | 0.985 | > 128 | 0.025 | < 3.91 | 0.923 | > 10 | 0.746 | 1370 | 0.793 | 7.32 | 0.879 | 14.1 | 0.624 | 639
Daudi (Burkitt lymphoma, suspension) | 0.985 | > 128 | 0.989 | > 1000 | 0.946 | > 10 | 0.383 | 160 | 0.844 | 11.7 | 0.89 | 17.8 | 0.676 | 898
EB2 (Burkitt lymphoma, suspension) | 0.925 | > 128 | 0.989 | > 1000 | 0.979 | > 10 | 0.478 | 281 | 0.888 | 18.8 | 0.752 | 6.08 | 0.967 | > 5000
EB-3 (Burkitt lymphoma, suspension) | 0.97 | > 128 | 0.975 | > 1000 | 0.961 | > 10 | 0.698 | 1280 | 0.926 | > 20 | 0.773 | 9.07 | 0.848 | 4670
EC-GI-10 (oesophagus, adherent) | 0.989 | > 128 | 0.283 | 15.3 | 0.964 | > 10 | 0.986 | > 5120 | 0.985 | > 20 | 0.908 | > 20 | 0.986 | > 5000
EJM (lymphoid neoplasm, semi-adherent) | 0.992 | > 128 | 0.986 | > 1000 | 0.986 | > 10 | 0.951 | > 5120 | 0.84 | 10.7 | 0.826 | 9.62 | 0.76 | 1510

Cell Line | AUC (AV-951) | IC50 (AV-951) [nM] | AUC (Trametinib) | IC50 (Trametinib) [nM] | AUC (PF-4708671) | IC50 (PF-4708671) [µM] | AUC (HG-6-64-1) | IC50 (HG-6-64-1) [nM] | AUC (I-BET-762) | IC50 (I-BET-762) [µM] | AUC (KIN001-244) | IC50 (KIN001-244) [µM] | AUC (MS-275) | IC50 (MS-275) [nM]
EKVX (lung adenocarcinoma, adherent) | 0.97 | > 128 | 0.635 | 225 | 0.948 | > 10 | 0.934 | > 5120 | 0.957 | > 20 | 0.936 | > 20 | 0.764 | 4670
EM-2 (chronic myeloid leukaemia, suspension) | 0.812 | 80.2 | 0.271 | 12.7 | 0.973 | > 10 | 0.23 | 46.5 | 0.712 | 5.41 | 0.79 | 10.3 | 0.45 | 223
ES1 (Ewing sarcoma, adherent) | 0.939 | > 128 | 0.985 | > 1000 | 0.975 | > 10 | 0.858 | 4100 | 0.91 | > 20 | 0.737 | 5.88 | 0.902 | > 5000
ES5 (Ewing sarcoma, adherent) | 0.977 | > 128 | 0.971 | > 1000 | 0.93 | > 10 | 0.741 | 1760 | 0.781 | 9.59 | 0.807 | 12.1 | 0.94 | > 5000
ES6 (Ewing sarcoma, adherent) | 0.979 | > 128 | 0.939 | > 1000 | 0.974 | > 10 | 0.714 | 1510 | 0.937 | > 20 | 0.891 | > 20 | 0.677 | 1110
ES7 (Ewing sarcoma, adherent) | 0.912 | > 128 | 0.926 | > 1000 | 0.928 | > 10 | 0.701 | 1200 | 0.763 | 7.38 | 0.596 | 2.31 | 0.782 | 2160
ES8 (Ewing sarcoma, adherent) | 0.979 | > 128 | 0.966 | > 1000 | 0.957 | > 10 | 0.869 | 4150 | 0.756 | 6.4 | 0.763 | 6.7 | 0.515 | 342
ES-2 (ovary, adherent) | 0.991 | > 128 | 0.113 | 4.46 | 0.902 | > 10 | 0.92 | > 5120 | 0.947 | > 20 | 0.79 | 7.75 | 0.872 | 3800
ETK-1 (biliary tract, adherent) | 0.98 | > 128 | 0.823 | 697 | 0.959 | > 10 | 0.786 | 2530 | 0.93 | > 20 | 0.863 | > 20 | 0.682 | 1080
EVSA-T (breast, adherent) | 0.991 | > 128 | 0.981 | > 1000 | 0.96 | > 10 | 0.983 | > 5120 | 0.626 | 2.63 | 0.712 | 4.47 | 0.74 | 1340
EW-1 (Ewing sarcoma, semi-adherent) | 0.988 | > 128 | 0.987 | > 1000 | 0.983 | > 10 | 0.77 | 1800 | 0.815 | 9.85 | 0.814 | 9.76 | 0.83 | 2790
EW-3 (Ewing sarcoma, adherent) | 0.964 | > 128 | 0.933 | > 1000 | 0.984 | > 10 | 0.956 | > 5120 | 0.822 | 13.9 | 0.705 | 5.18 | 0.923 | > 5000
EW-11 (Ewing sarcoma, adherent) | 0.976 | > 128 | 0.865 | > 1000 | 0.975 | > 10 | 0.743 | 1980 | 0.912 | > 20 | 0.737 | 7.36 | 0.918 | > 5000
EW-13 (Ewing sarcoma, suspension) | 0.973 | > 128 | 0.984 | > 1000 | 0.986 | > 10 | 0.642 | 826 | 0.712 | 5.33 | 0.643 | 3.26 | 0.973 | > 5000
EW-16 (Ewing sarcoma, adherent) | 0.974 | > 128 | 0.875 | > 1000 | 0.963 | > 10 | 0.584 | 548 | 0.89 | > 20 | 0.858 | 17.5 | 0.724 | 1400
EW-18 (Ewing sarcoma, suspension) | 0.981 | > 128 | 0.975 | > 1000 | 0.967 | > 10 | 0.894 | > 5120 | 0.785 | 9.17 | 0.742 | 6.52 | 0.885 | > 5000
EW-24 (Ewing sarcoma, semi-adherent) | 0.993 | > 128 | 0.992 | > 1000 | 0.907 | > 10 | 0.871 | 3840 | 0.993 | > 20 | 0.985 | > 20 | 0.892 | 4650
Farage (B-cell lymphoma, suspension) | 0.988 | > 128 | 0.992 | > 1000 | 0.992 | > 10 | 0.559 | 449 | 0.931 | > 20 | 0.738 | 5.11 | 0.727 | 1190
GB-1 (glioma, adherent) | 0.974 | > 128 | 0.656 | 184 | 0.962 | > 10 | 0.173 | 26.3 | 0.861 | > 20 | 0.897 | > 20 | 0.739 | 1730
